{"source": "the supplement of paper PMC11417369", "note": "± gives the standard deviation of the averaged measurements. Some of the results follow."}
{"tested_on": "PfAP2-LT AP2 domain (GST-tagged)", "assay": "gcPBM binding intensity (ln(normalized median fluorescence intensity)); higher = stronger DNA binding", "in_short": "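DNA-binding domains from P. falciparum, fused to GST and produced in E. coli, were put on an Agilent 4 × 180k double-stranded probe array for 1 h in 1× PBS holding 1% milk, 0.2 mg/ml BSA, 0.5% salmon testes DNA and 0.03% Triton X-100. Probes were primer-extended, 36 bp long and drawn from intergenic genomic regions, with negative controls included. After Alexa488 anti-GST antibody detection and a 488 nm scan, binding intensity was set as the highest Masliner-normalised natural-log median intensity across replicate spots of either probe orientation.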"}
{"sequence": "AAAATCAAGTAGTATAAAGTAAGTATCATAAAAATA [CACACA_negctrl_site1554]", "gcPBM binding intensity (ln)": "8.79 ± 0.5"}
{"sequence": "ATAATAAAATGGAGAGTGCATACATGTTTATTTTAT", "gcPBM binding intensity (ln)": "8.9 ± 0.51"}
{"sequence": "GTACACTAATTATGTGCACACAAATTAAAGGTCTAC [CACACA_site146]", "gcPBM binding intensity (ln)": "9.72 ± 0.3"}
{"sequence": "TGTAGTTTGTCCCATGCATGTTCCATTAAAATATAT [TGCATGCA_site854]", "gcPBM binding intensity (ln)": "9.03 ± 0.35"}
{"sequence": "CAATCAAAGAAACACACACACACCTAAACATAAAAG [CACACA_site2756]", "gcPBM binding intensity (ln)": "10.2 ± 0.33"}
{"sequence": "TTAACGTAAAATATAGTGCATAGTATCATATTGATA [GTGCAC_site9527]", "gcPBM binding intensity (ln)": "8.82 ± 0.45"}
{"sequence": "AATGTATATATGTAATGTACATATATAATGTATATA [XGTACX_site6510]", "gcPBM binding intensity (ln)": "8.99 ± 0.44"}
{"sequence": "TATATAAACCCGTACACACACATATATGTATATATA [CACACA_site3507]", "gcPBM binding intensity (ln)": "9.5 ± 0.3"}
{"sequence": "TTACTCATGAAAGATACACACATTCATTATATATAT [CACACA_site3252]", "gcPBM binding intensity (ln)": "8.96 ± 0.4"}
{"sequence": "TACTTCTACAAGAGAAGTACAATATTTTTTATATTA [XGTACX_site8351]", "gcPBM binding intensity (ln)": "8.24 ± 0.43"}
{"sequence": "AATAAAAATTTACTTTGTACACATATTAAATTCAAT [XGTACX_site1957]", "gcPBM binding intensity (ln)": "8.56 ± 0.46"}
{"sequence": "AGACATAAGATAATTACACACAATACATCCCTATAT [CACACA_site2227]", "gcPBM binding intensity (ln)": "9.24 ± 0.38"}
{"sequence": "AAATTTACAATACATTGTACATATTAATAATATTCC [XGTACX_site3646]", "gcPBM binding intensity (ln)": "8.69 ± 0.49"}
{"sequence": "GTGTGTTGTATATACTGTACATACTTTATATATAGT [XGTACX_site1876]", "gcPBM binding intensity (ln)": "9.26 ± 0.46"}
{"sequence": "TATAACAAGTAATGTTGTACATTGTATTATGTAATA [XGTACX_site6372]", "gcPBM binding intensity (ln)": "8.63 ± 0.46"}
{"sequence": "AATGTAAAATATATGTGTACATATGTTTATATATAT [XGTACX_site2216]", "gcPBM binding intensity (ln)": "8.84 ± 0.41"}
{"sequence": "AAATGTGTTTATTTAACACACAAAAGAAAAAATATA [CACACA_site6993]", "gcPBM binding intensity (ln)": "9.02 ± 0.54"}
{"sequence": "CTGTTTTTGTTTTAAAGTACATTGTTCAATATACAT [XGTACX_site5288]", "gcPBM binding intensity (ln)": "8.82 ± 0.43"}
{"sequence": "TGTTCTGAACGGTTCATGCACTTTTTTTTGTTAATT", "gcPBM binding intensity (ln)": "8.85 ± 0.48"}
{"sequence": "TTTATTTTCATATGAACACACATATATATATTATAA [CACACA_site2369]", "gcPBM binding intensity (ln)": "8.99 ± 0.44"}
{"sequence": "TTATATACCCTAATATGTTTTATTATTATTATATAT [TGCATGCA_negctrl_site6]", "gcPBM binding intensity (ln)": "8.75 ± 0.55"}
{"sequence": "TATATTCTACAAGAATTATGAATTGTCAGACCAAAT [CACACA_negctrl_site1101]", "gcPBM binding intensity (ln)": "8.46 ± 0.37"}
{"sequence": "TACAATGTGGATAATTGTACAAAACCGATAAGAGGG [XGTACX_site6453]", "gcPBM binding intensity (ln)": "9.07 ± 0.4"}
{"sequence": "ATATAAATAATATAAATACACACTAAAAAAAATATA [CACACA_site542]", "gcPBM binding intensity (ln)": "8.88 ± 0.44"}
{"sequence": "AAGAAAAACTTTACGTGTACCAAACATCCTGCCGAC [XGTACX_site4895]", "gcPBM binding intensity (ln)": "8.94 ± 0.38"}
{"sequence": "TAAACCTTAAAATATTTCTCATGTTTAACTTATATT [GTGCAC_negctrl_site233]", "gcPBM binding intensity (ln)": "8.55 ± 0.58"}
{"sequence": "AAAAAATAATTGAAGTGTACGTACAATGATTTTACT [XGTACX_site7663]", "gcPBM binding intensity (ln)": "9.03 ± 0.35"}
{"sequence": "GTATTCTACAGACACATACACACATATATATATATA [CACACA_site3427]", "gcPBM binding intensity (ln)": "9.57 ± 0.27"}
{"sequence": "TTATAATATTGTGGTATACACACCTTACAAAAAGGT [CACACA_site2878]", "gcPBM binding intensity (ln)": "8.96 ± 0.46"}
{"sequence": "GGGAGAAATTTATACATACACACATATATATATTAT [CACACA_site4039]", "gcPBM binding intensity (ln)": "9.18 ± 0.3"}
{"sequence": "TTATAAAAAAAAAAAAAAAATATATATATATATATA [XGTACX_negctrl_site592]", "gcPBM binding intensity (ln)": "9.47 ± 0.44"}
{"sequence": "AATAATATATATTGTACACACAAAATGGGAAAAAAA [CACACA_site5100]", "gcPBM binding intensity (ln)": "9.1 ± 0.33"}
{"sequence": "AAAAAATAATAATAAAATGAATAGATATGTATTTAT [TGCATGCA_negctrl_site210]", "gcPBM binding intensity (ln)": "8.63 ± 0.52"}
{"sequence": "AGCAGAGTTACAATTTGTACGTAATTGATATAGATA [XGTACX_site4051]", "gcPBM binding intensity (ln)": "8.86 ± 0.42"}
{"sequence": "AACATATTATCTTGTGAAAATAATATAAGTCACATT [TGCATGCA_negctrl_site339]", "gcPBM binding intensity (ln)": "8.97 ± 0.38"}
{"sequence": "ATATATATATATATTTGTACAGAAAATATTTTAATA [XGTACX_site3706]", "gcPBM binding intensity (ln)": "8.73 ± 0.37"}
{"sequence": "ACAAAATGTAAATAAACACACATATATATATATATA [CACACA_site1281]", "gcPBM binding intensity (ln)": "9.88 ± 0.014"}
{"sequence": "ATAATTTATATTCAGAAACACACGAAAAAAAAAAAT [CACACA_site1296]", "gcPBM binding intensity (ln)": "8.84 ± 0.49"}
{"sequence": "AACTAAACAAAAGTTACACACATCATACGATATTAT [CACACA_site3180]", "gcPBM binding intensity (ln)": "8.98 ± 0.38"}
{"sequence": "ACCATATAATTTTTTTGTACATAATGATTTTTTTTT [XGTACX_site1104]", "gcPBM binding intensity (ln)": "8.8 ± 0.42"}
{"sequence": "TATATTATATACGTCTGTACACAAATGAGAGGTAAA [XGTACX_site5538]", "gcPBM binding intensity (ln)": "8.82 ± 0.39"}
{"sequence": "ATGTTAAGAATAATTAGTACTTACATATGTATAATA [XGTACX_site4419]", "gcPBM binding intensity (ln)": "8.71 ± 0.39"}
{"sequence": "TAAATATTTTATTGTACACACTTTTTATGAATGATG [CACACA_site5694]", "gcPBM binding intensity (ln)": "8.88 ± 0.43"}
{"sequence": "AATATTTAAAACAAATCACACATGTATCCATAAATG [CACACA_site5308]", "gcPBM binding intensity (ln)": "8.73 ± 0.35"}
{"sequence": "ATATCCCATATGTAATGTACTTACACTTTCTTAATT [XGTACX_site7020]", "gcPBM binding intensity (ln)": "8.97 ± 0.42"}
{"sequence": "ATAAAATATATATGCACACACATATATATTTCATAC [CACACA_site3547]", "gcPBM binding intensity (ln)": "9.37 ± 0.36"}
{"sequence": "ACATAAAATAAATATACACACATATGTATATATTAT [CACACA_site3041]", "gcPBM binding intensity (ln)": "9.09 ± 0.4"}
{"sequence": "ATATATATATATATGTGTACTTATAAATATATCTGT [XGTACX_site4337]", "gcPBM binding intensity (ln)": "9.55 ± 0.32"}
{"sequence": "AAAAGAATTTAGAAGGCATGCACTTAAACATGGATA [TGCATGCA_site699]", "gcPBM binding intensity (ln)": "9.1 ± 0.6"}
{"sequence": "AAAAAAATAATGTACACACACATATCTGTTTATATA [CACACA_site4270]", "gcPBM binding intensity (ln)": "9.27 ± 0.34"}
{"sequence": "ATATTTATATATATATGTACATATGTGTGTTTTTAT [XGTACX_site3956]", "gcPBM binding intensity (ln)": "9.22 ± 0.36"}
{"sequence": "ATATATAACTTTTCTTAACACACAAAAAACAAAAAT [CACACA_site8748]", "gcPBM binding intensity (ln)": "8.84 ± 0.36"}
{"sequence": "TCATAAACATTATGCACACAAAAATAAAAAAAAATA [CACACA_site1115]", "gcPBM binding intensity (ln)": "9.2 ± 0.5"}
{"sequence": "AGGGAATAATATTAATGTACATATATGAACTTGTTT [XGTACX_site6089]", "gcPBM binding intensity (ln)": "8.93 ± 0.43"}
{"sequence": "TCTTTTAAAAATTAAGTGCATGTCCTTATAACAAAA", "gcPBM binding intensity (ln)": "8.23 ± 0.41"}
{"sequence": "TATAAAAAGGAAAAATAAAAATAAAAATAAAAATTA [CACACA_negctrl_site1822]", "gcPBM binding intensity (ln)": "8.42 ± 0.57"}
{"sequence": "TTTTTATATTATTTAATGAGAAATAATTATAAACAA [CACACA_negctrl_site553]", "gcPBM binding intensity (ln)": "8 ± 0.44"}
